Source: the supplement of paper PMC4967469
A lower IC50 marks a more sensitive line; fits outside the tested doses are given as limits. AUC sums up the same curve from the lowest dose to the 256-fold higher top dose; the more sensitive the line, the further below 1. Drugs with an entry number were screened twice under separate entries, and the two screens often disagree.

compound: CS(=O)(=O)N1CCN(Cc2cc3nc(-c4cccc5[nH]ncc45)nc(N4CCOCC4)c3s2)CC1 [GDC0941]; test: Viability of human cancer cell lines after 72 h of drug (GDSC screen); conditions: screen: GDSC drug entry 1058
Procedure: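 Human cancer cell lines in 384-well plates, medium with 10% serum, drug for 72 h over a 256-fold dose range (nine 2-fold or five 4-fold steps up to the top dose). Adherent lines were fixed and stained with the nucleic acid dye Syto60, suspension lines read with resazurin; signal relative to control wells, capped at 0 and 100%. One two-parameter sigmoid per drug and line, fitted in a mixed model over all curves with the slope shared within a line.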

Cell Line | AUC | IC50 [nM]
JHH-4 (liver, adherent, top dose 4 µM) | 0.858 | 3280
JHH-7 (liver, adherent, top dose 4 µM) | 0.942 | > 4000
JHOS-2 (ovary, adherent, top dose 4 µM) | 0.514 | 275
JHOS-3 (ovary, adherent, top dose 4 µM) | 0.827 | 3420
JHOS-4 (ovary, adherent, top dose 4 µM) | 0.899 | > 4000
JHU-011 (head and neck, adherent, top dose 4 µM) | 0.58 | 413
JHU-022 (head and neck, adherent, top dose 4 µM) | 0.676 | 891
JHU-029 (head and neck, adherent, top dose 4 µM) | 0.722 | 1250
JIMT-1 (breast, adherent, top dose 4 µM) | 0.595 | 467
JM1 (B-cell lymphoma, suspension, top dose 4 µM) | 0.893 | 3560
JSC-1 (B-cell lymphoma, suspension, top dose 4 µM) | 0.977 | > 4000
JURL-MK1 (chronic myeloid leukaemia, suspension, top dose 4 µM) | 0.942 | > 4000
JVM-2 (lymphoid neoplasm, suspension, top dose 4 µM) | 0.614 | 553
JVM-3 (lymphoid neoplasm, suspension, top dose 4 µM) | 0.807 | 2080
JiyoyeP-2003 (Burkitt lymphoma, suspension, top dose 4 µM) | 0.958 | > 4000
Jurkat (T-cell leukaemia, suspension, top dose 4 µM) | 0.992 | > 4000
K2 (melanoma, adherent, top dose 4 µM) | 0.948 | > 4000
KARPAS-45 (lymphoblastic leukaemia, suspension, top dose 4 µM) | 0.414 | 151
KARPAS-231 (B-cell leukaemia, suspension, top dose 4 µM) | 0.234 | 53.6
KARPAS-299 (anaplastic large cell lymphoma, suspension, top dose 4 µM) | 0.886 | 3120
KARPAS-422 (B-cell lymphoma, suspension, top dose 4 µM) | 0.646 | 631

Cell Line | AUC | IC50 [nM]
KARPAS-1106P (B-cell lymphoma, suspension, top dose 4 µM) | 0.427 | 164
KATOIII (stomach, semi-adherent, top dose 4 µM) | 0.838 | 2370
KCL-22 (chronic myeloid leukaemia, suspension, top dose 4 µM) | 0.983 | > 4000
KE-37 (lymphoblastic leukaemia, suspension, top dose 4 µM) | 0.857 | 2110
KELLY (neuroblastoma, adherent, top dose 4 µM) | 0.715 | 947
KG-1 (acute myeloid leukaemia, suspension, top dose 4 µM) | 0.972 | > 4000
KGN (ovary, adherent, top dose 4 µM) | 0.951 | > 4000
KINGS-1 (glioma, adherent, top dose 4 µM) | 0.826 | 3760
KLE (endometrium, adherent, top dose 4 µM) | 0.855 | > 4000
KM12 (large intestine, adherent, top dose 4 µM) | 0.961 | > 4000
KM-H2 (Hodgkin lymphoma, suspension, top dose 4 µM) | 0.986 | > 4000
KMH-2 (thyroid, adherent, top dose 4 µM) | 0.897 | > 4000
KMOE-2 (acute myeloid leukaemia, suspension, top dose 4 µM) | 0.723 | 985
KMRC-1 (kidney, adherent, top dose 4 µM) | 0.896 | > 4000
KMRC-20 (kidney, adherent, top dose 4 µM) | 0.987 | > 4000
KNS-42 (glioma, adherent, top dose 4 µM) | 0.975 | > 4000
KNS-62 (lung squamous cell carcinoma, adherent, top dose 4 µM) | 0.812 | 3500
KNS-81-FD (glioma, adherent, top dose 4 µM) | 0.924 | > 4000
KON (head and neck, adherent, top dose 4 µM) | 0.704 | 926
KOPN-8 (B-cell leukaemia, suspension, top dose 4 µM) | 0.849 | 2370
KP-1N (pancreas, adherent, top dose 4 µM) | 0.9 | > 4000

Cell Line | AUC | IC50 [nM]
KP-2 (pancreas, adherent, top dose 4 µM) | 0.792 | 1970
KP-3 (pancreas, adherent, top dose 4 µM) | 0.875 | > 4000
KP-N-YN (neuroblastoma, adherent, top dose 4 µM) | 0.977 | > 4000
KS-1 (glioma, adherent, top dose 4 µM) | 0.72 | 1240
KU812 (chronic myeloid leukaemia, suspension, top dose 4 µM) | 0.883 | 3630
KU-19-19 (bladder, adherent, top dose 4 µM) | 0.62 | 534
KY821 (leukaemia, suspension, top dose 4 µM) | 0.469 | 208
KYAE-1 (oesophagus, suspension, top dose 4 µM) | 0.521 | 286
KYM-1 (rhabdomyosarcoma, adherent, top dose 2 µM) | 0.937 | > 2000
KYSE-50 (oesophagus, adherent, top dose 4 µM) | 0.969 | > 4000
KYSE-140 (oesophagus, adherent, top dose 4 µM) | 0.892 | > 4000
KYSE-150 (oesophagus, adherent, top dose 4 µM) | 0.888 | > 4000
KYSE-220 (oesophagus, adherent, top dose 4 µM) | 0.974 | > 4000
KYSE-410 (oesophagus, adherent, top dose 4 µM) | 0.722 | 1120
KYSE-450 (oesophagus, adherent, top dose 4 µM) | 0.788 | 1650
KYSE-510 (oesophagus, adherent, top dose 4 µM) | 0.9 | 3590
KYSE-520 (oesophagus, adherent, top dose 4 µM) | 0.818 | 3340
L-428 (Hodgkin lymphoma, suspension, top dose 4 µM) | 0.982 | > 4000
L-540 (Hodgkin lymphoma, suspension, top dose 4 µM) | 0.983 | > 4000
L-1236 (Hodgkin lymphoma, suspension, top dose 4 µM) | 0.702 | 834
LAMA-84 (chronic myeloid leukaemia, suspension, top dose 4 µM) | 0.865 | 3630

Cell Line | AUC | IC50 [nM]
LAN-6 (neuroblastoma, adherent, top dose 4 µM) | 0.934 | > 4000
LB373-MEL-D (melanoma, adherent, top dose 4 µM) | 0.939 | > 4000
LB647-SCLC (small cell lung carcinoma, semi-adherent, top dose 4 µM) | 0.891 | > 4000
LB771-HNC (head and neck, adherent, top dose 4 µM) | 0.922 | > 4000
LB831-BLC (bladder, adherent, top dose 4 µM) | 0.907 | > 4000
LB996-RCC (kidney, adherent, top dose 2 µM) | 0.804 | 1200
LB1047-RCC (kidney, adherent, top dose 4 µM) | 0.615 | 541
LB2518-MEL (melanoma, adherent, top dose 4 µM) | 0.886 | > 4000
LC4-1 (lymphoblastic leukaemia, suspension, top dose 4 µM) | 0.971 | > 4000
LC-1-sq (lung squamous cell carcinoma, adherent, top dose 4 µM) | 0.885 | > 4000
LC-2-ad (lung adenocarcinoma, adherent, top dose 2 µM) | 0.896 | > 2000
LCLC-97TM1 (large cell lung carcinoma, adherent, top dose 4 µM) | 0.783 | 1850
LCLC-103H (large cell lung carcinoma, adherent, top dose 2 µM) | 0.961 | > 2000
LK-2 (lung squamous cell carcinoma, adherent, top dose 4 µM) | 0.971 | > 4000
LN-18 (glioma, adherent, top dose 4 µM) | 0.929 | > 4000
LN-229 (glioma, adherent, top dose 4 µM) | 0.983 | > 4000
LN-405 (glioma, adherent, top dose 4 µM) | 0.789 | 2280
LNZTA3WT4 (glioma, adherent, top dose 4 µM) | 0.951 | > 4000
